Measurements reported in PubChem BioAssay AID463173 (ICCB-Longwood Screening Facility, Harvard Medical School, 2010).
Out of some 52,000 compounds screened, about 4,300 (8.3%) were called active. Cut-off read from the data, not from the text of the source: active = survival mostly below about 52% (no sharp cut-off); inactive = mostly above about 56%. The list shows a part of the results.

What follows are compounds tested on DeltatarO mutant (assay: S. aureus survival, RN4220 and DeltatarO strains – OD600, teichoic acid synthesis inhibitors, primary screen (AID 463173)). Details: S. aureus RN4220 wild type/DeltatarO growth, OD600, 18 h, hits give low values, screened at 18.75 µg/mL (by protocol).
With Cc1ccc(C(=O)Nc2nnc(S(=O)(=O)N3CCOCC3)s2)cc1 the survival was inactive: 68%. Cc1cc(Cl)nc2ccc(Cl)cc12 was tested, and the survival was inactive: 76%. COC(=O)c1ccc(NC(=O)C2(S(=O)(=O)c3ccc(C)cc3)CC2)cc1 was tested, and the survival was inactive: 134%. With CCNC(=O)Cn1cc(C#N)c2ccccc21 the survival was inactive: 88%. In the case of O=C1C2C3C=CC(C3)C2C(=O)N1CCN1CCCC1 (stereo unspecified), the survival is reported as inactive: 109%. In the case of CCc1ccc(-n2nnc(-c3nc(-c4ccccc4)no3)c2C)cc1, the survival is reported as inactive: 99%. COc1ccc(CCNC(=O)c2ccc3c(c2)N(Cc2cccc(C)c2)C(=O)c2ccccc2S3(=O)=O)cc1OC was tested, and the survival was inactive: 77%. C1=CCC(CN2CCN(CC3CC4C=CC3C4)CC2)CC1 (stereo unspecified) was tested, and the survival was inactive: 76%. CCn1cc(S(=O)(=O)c2cc(C)cc(C)c2)c(=O)c2cc(F)c(N3CCOCC3)cc21 was tested, and the survival was inactive: 72%. COc1ccccc1NC(=O)CSc1nnc(-c2cccc(Cl)c2)o1 was tested, and the survival was inactive: 80%. With CCOc1ccccc1-c1nc(-c2ccc(-c3ccccc3)nc2OCC)no1 the survival was active: 4%. In the case of COc1ccc2nc(N(Cc3cccnc3)C(=O)CCc3ccccc3)sc2c1, the survival is reported as inactive: 78%. With Cc1ccc(Nc2c3c(nc4nncn24)CCC3)cc1 the survival was inactive: 62%. COc1ccccc1Nc1c2c(nc3ccc(NC(=O)/C=C/c4cccc(OC)c4OC)cc13)CCCC2 was tested, and the survival was inactive: 74%. In the case of Cc1ccc(S(=O)(=O)N2CCC(Oc3ccc(-n4cnnn4)cc3)CC2)cc1, the survival is reported as inactive: 72%. In the case of COc1ccc(CC(=O)Nc2ccc3nc(Nc4cccc(Cl)c4)cc(C)c3c2)cc1OC, the survival is reported as active: 46%. For COc1cc2c(cc1OC)C1=C(C#N)CN(C3CCCCC3)CN1CC2, the survival was inactive: 83%. With COc1ccc(CNCCSc2nnnn2-c2ccccc2)cc1 the survival was inactive: 47%. In the case of COc1ccccc1-n1cc(-c2ccc(C)cc2)nc1S(=O)(=O)CC(=O)Nc1ccccc1C(F)(F)F, the survival is reported as inactive: 111%. O=C(c1cccc(Cl)c1)n1nc(-c2ccco2)nc1NCc1cccs1 was tested, and the survival was inactive: 78%. O=C(CNC(=O)c1ccccc1Cl)OCc1cc(=O)n2ccsc2n1 was tested, and the survival was inactive: 80%. For Brc1csc(CN2CCc3nc(Nc4ccccc4)ncc3C2)c1, the survival was inactive: 83%. For Cc1cccc(NC(=O)c2cc(S(=O)(=O)N3CCCCC3)c[nH]2)c1C, the survival was inactive: 87%. In the case of COc1cc(CN(C(=O)c2cc3ccccc3oc2=O)C2CCS(=O)(=O)C2)cc(OC)c1OC (stereo unspecified), the survival is reported as inactive: 52%. With Cc1cccc(Cn2c(SCc3ccc(C(=O)N4CCCCCC4)cc3)nc3ccncc32)c1 the survival was inactive: 128%. With Cc1cc(C)cc(-n2cnc3cc(C(=O)NCCc4ccccc4)ccc32)c1 the survival was inactive: 78%. With Cc1ccc(C)c(N(C)C(=O)c2cn(C)c(=O)c3ccccc23)c1 the survival was inactive: 67%. In the case of CCOC(=O)c1c(Oc2ccc(C(=O)OC)cc2)nnc(-c2ccccc2)c1-c1ccccc1, the survival is reported as inactive: 74%. In the case of Cc1ccc(CCNC(=O)CCc2cn(Cc3ccccc3C)c3ccccc23)cc1, the survival is reported as inactive: 68%. With COc1cc(NC(=O)Cn2c(SCc3ccc(F)cc3)nc3cccnc32)cc(OC)c1 the survival was inactive: 120%. With CCN(C(=O)Cn1c(C(=O)OC)cc2oc3ccccc3c21)c1cccc(C)c1 the survival was inactive: 53%. In the case of c1ccc(C(c2nnnn2C2CCCC2)N2CCN(c3ccccc3)CC2)cc1 (stereo unspecified), the survival is reported as inactive: 102%. In the case of Cc1cc(C(F)(F)F)n2nc(-c3ccc(Br)cc3)cc2n1, the survival is reported as inactive: 66%. With CN1CCN(CC(=O)NCCc2ccc(F)cc2)CC1 the survival was inactive: 83%. CCCCOc1ccc(-c2nn(-c3ccccc3)cc2C2NC(=O)NC(C)=C2C(=O)OCC)cc1 (stereo unspecified) was tested, and the survival was inactive: 75%. In the case of Cc1ccc(CNC(=O)c2ccc3c(c2)nc(C)n3-c2cccc(F)c2)cc1, the survival is reported as inactive: 84%. In the case of CCOc1ccc(NC(=O)CSC2=Nc3ccccc3C3=NC(CCC(=O)NCc4ccccc4)C(=O)N23)cc1 (stereo unspecified), the survival is reported as inactive: 98%. For Cc1ccc(CSc2nc3ccc(NC(=O)COc4ccccc4)cc3s2)cc1, the survival was inactive: 87%. COc1ccc(OCC(=O)NCc2ccc3c(c2)CCN3C(=O)c2ccccc2)cc1 was tested, and the survival was inactive: 70%. In the case of COc1ccccc1N1CCN(c2ncnc3c2cnn3-c2cc(Cl)ccc2C)CC1, the survival is reported as inactive: 124%. In the case of CCc1ccc(C(=O)c2cn(CC(=O)Nc3cccc(OC)c3)c3ccc(OC)cc3c2=O)cc1, the survival is reported as inactive: 65%. With Cc1cc2oc(C(=O)Nc3ccc(S(N)(=O)=O)cc3)cc(=O)c2cc1C the survival was inactive: 70%. O=C(NCCc1ccccc1)c1cnc2sc(N3CCCCCC3)nn2c1=O was tested, and the survival was inactive: 90%. In the case of Cc1ccc(C(=O)N2c3ccc(C)cc3C(C)(c3ccccc3)CC2(C)C)cc1 (stereo unspecified), the survival is reported as active: 4%. In the case of C=CCNC(=O)CSc1nc(-c2ccco2)cc(C(F)(F)F)n1, the survival is reported as inactive: 67%. With CCCCCn1c(=O)[nH]c2cc(C(=O)Nc3cc(C)cc(C)c3)ccc2c1=O the survival was inactive: 88%. For CN(C)S(=O)(=O)N(CC(=O)NCCSCc1ccccc1)c1ccccc1, the survival was inactive: 66%. For Cc1cccc(N2C(=O)N(CC(=O)C(C)(C)C)c3ccccc3S2(=O)=O)c1C, the survival was inactive: 81%. Cc1ccc(C)c(NC(=O)CN2CCCN(Cc3cccc(Cl)c3)S2(=O)=O)c1 was tested, and the survival was inactive: 95%. In the case of CC[n+]1c(C)oc2ccc(OC)cc21, the survival is reported as inactive: 64%. For Cn1nc(C(=O)NCc2ccc(Cl)cc2)c2c1-c1ccccc1S(=O)(=O)C2, the survival was inactive: 66%. With Cc1ccc(OCc2nc(-c3ccc(C(=O)N4CCN(c5ccccc5F)CC4)cc3)oc2C)cc1 the survival was inactive: 79%. In the case of COc1ccc(CNC(=O)Cn2c(SCC(=O)Nc3ccc(OC)cc3)nc3ccccc32)cc1, the survival is reported as inactive: 89%. For Cc1cccc(-n2ncc(C(=O)N3CCN(c4ccc(Cl)cc4)CC3)c2C2CCN(C(=O)OC(C)(C)C)CC2)c1, the survival was inactive: 82%. In the case of CCc1ccc2nc(N(CCN(CC)CC)C(=O)c3ccco3)sc2c1, the survival is reported as inactive: 54%. In the case of Cc1ccc(NC(=O)c2ccc(-c3cccc(Cl)c3C)o2)cc1, the survival is reported as active: 1%. For COc1ccc(OC)c(CNC(=O)c2cc3c(-c4ccc(OC)c(OC)c4)nn(C)c3s2)c1, the survival was inactive: 82%. In the case of CCNC(=S)N1CCC(C(=O)c2ccc(Cl)cc2)CC1, the survival is reported as inactive: 84%. For COc1ccc(C2C(C#N)=C(N)Oc3c2ccc2cccnc32)cc1 (stereo unspecified), the survival was inactive: 103%. With COC(=O)c1ccc(OCC2c3cc(OC)c(OC)cc3CCN2C(=O)Cc2ccc(OC)cc2)cc1 (stereo unspecified) the survival was inactive: 79%. In the case of CCc1ccc(Sc2cc(C(=O)NCc3cccc(OC)c3)c3ccccc3n2)cc1, the survival is reported as inactive: 80%. With COc1ccc(C2NC(=O)N(C)C3=C2C(=O)N(c2cccc(Cl)c2)C3)cc1 (stereo unspecified) the survival was inactive: 61%. For CCOc1ccc(N2CC(NC(=O)C(=O)c3c[nH]c4ccccc34)CC2=O)cc1 (stereo unspecified), the survival was inactive: 67%. With CCn1c(=O)cc(SCC(=O)NCc2ccc(F)cc2Cl)c2ccccc21 the survival was inactive: 85%. With Cc1cccc(NC(=O)CSc2cn(CC(=O)N3CCCCCC3)c3ccccc23)c1 the survival was inactive: 104%. With Cc1cc(OC(C)C(=O)Nc2c(C(=O)c3ccc(F)cc3)oc3ccccc23)ccc1Cl (stereo unspecified) the survival was inactive: 86%. CCc1ccc(Sc2cc(C(=O)NCc3ccccc3OC)c3ccccc3n2)cc1 was tested, and the survival was inactive: 69%. In the case of CCOc1ccc(C(=O)/C=C/c2cn(CC(O)CN3CCCCCC3)c3ccccc23)cc1 (stereo unspecified), the survival is reported as active: 1%. With Cc1ccccc1C(=O)Nc1cc2c(cc1N1CCOCC1)n(C)c(=O)n2C the survival was inactive: 83%. For Cc1cc(C)c(S(=O)(=O)Nc2ccc(-c3ccc(N4CCC(C)CC4)nn3)cc2)cc1C, the survival was inactive: 76%. For C=CCNC(=O)c1cc2c(=O)n3cccc(C)c3nc2n(CCN2CCOCC2)c1=N, the survival was inactive: 103%. In the case of Cc1cccc(C)c1Nc1c(-c2ccccc2F)nc2cccc(C)n12, the survival is reported as active: 6%. For CC(C)CCNC(=O)C1CCN(Cc2ccccc2O)CC1, the survival was inactive: 93%. With Cc1cc2nnc(SCc3ccc(F)cc3)n2c2ccccc12 the survival was active: -1%. CC(C)CCn1c(=O)c2cccnc2n(CC(=O)Nc2ccc(F)cc2)c1=O was tested, and the survival was inactive: 77%. COc1cccc(-c2cc(C(=O)Nc3c(C)nn(Cc4ccccc4Cl)c3C)no2)c1 was tested, and the survival was active: 34%. COc1ccc2occ(CC(=O)Nc3ccc(S(=O)(=O)Nc4nccc(C)n4)cc3)c2c1 was tested, and the survival was inactive: 71%. Cc1ccc(CNC(=O)c2sc3nc[nH]c(=O)c3c2C)cc1 was tested, and the survival was inactive: 117%. For C#CCn1c(C2CC(=O)N(c3ccc(OC)cc3)C2)nc2ccccc21 (stereo unspecified), the survival was inactive: 78%. For CN1CCN(C2(CNC(=O)c3ccc(C(C)(C)C)cc3)CCCCC2)CC1, the survival was inactive: 70%. In the case of Cc1ccc2oc3c(c(=O)c2c1)C(c1ccc(O)cc1)N(Cc1ccc2c(c1)OCO2)C3=O (stereo unspecified), the survival is reported as inactive: 71%. With CCOc1ccc(C(=O)c2cn(CC(=O)Nc3ccc(OC)cc3)c3cc4c(cc3c2=O)OCCO4)cc1 the survival was inactive: 82%. In the case of CCC1(C)CC(=O)c2c(ccc3oc(C(=O)NCc4ccccc4)c(C)c23)O1 (stereo unspecified), the survival is reported as active: 44%. With COc1ccc2[nH]c(=O)c(CN(C(=O)c3cccc(Cl)c3)c3ccccc3C)cc2c1 the survival was inactive: 71%. With O=C(NCCC1=CCCCC1)C1CCN(C(=O)Cc2ccccc2)CC1 the survival was inactive: 92%. In the case of Cn1cccc1/C=N/NC(=O)c1ccccn1, the survival is reported as inactive: 77%. In the case of COc1ccc(CNc2nc(SCc3ccc(Cl)cc3)nc3ccccc23)cc1, the survival is reported as inactive: 102%. Cc1ccc2[nH]c3c(=O)n(N)c(C)nc3c2c1 was tested, and the survival was inactive: 79%. For COc1ccc(-c2c3c(=O)n(C)c(=O)n(C)c3c3n2-c2ccccc2NC3c2ccc(OC)cc2)cc1 (stereo unspecified), the survival was inactive: 74%. For Cc1ccc(NC(=O)c2cc(S(=O)(=O)N(C)C3CCCCC3)ccc2F)cc1C, the survival was inactive: 66%. COc1ccccc1C(=O)Oc1c(Sc2ccccc2)c(C)nn1C(C)(C)C was tested, and the survival was inactive: 87%.
